Measurements: patent publication US20220280527A1, “TRACE AMINE ASSOCIATED RECEPTOR 1 AGONISTS AND PARTIAL AGONISTS FOR PAIN TREATMENT” (Purdue Pharma L.P., priority 2016, published 2022)

Key:
Sprague-Dawley rats [1] = assay: Rotarod performance; type: in vivo, rat; conditions: dosed orally at 3 mg/kg, 10 mg/kg, and 30 mg/kg
Description: The Rotarod test is used to evaluate motor coordination, strength, and balance. The animals are placed on the rotating rod of the device. The time during which an animal can maintain itself on said bar at an accelerating speed of 5-40 rpm is recorded. 300 seconds is the assay cut-off. Data are analyzed by a two-way ANOVA using a Bonferroni Multiple Comparisons test. […] In the experiment, male, Sprague-Dawley rats, 211-241 g (n=10/group) were tested on an accelerating rotarod (AccuScan; manual 5-40 rpm).

Sprague-Dawley rats [2] = assay: Hot plate test (nociceptive pain); conditions: IP, 3 mg/kg, 10 mg/kg, and 30 mg/kg, one hour prior to testing, hot plate 52° C.
Sprague-Dawley rats [3] = assay: Tail flick test (nociceptive pain); type: in vivo, rat; conditions: IP, 3 mg/kg, 10 mg/kg, and 30 mg/kg, one hour prior to testing

## CC(C)N(Cc1cnc[nH]1)c1ccc(Cl)cc1 [Compound 1, N-((1H-imidazol-4-yl)methyl)-4-chloro-N-isopropylaniline]
Sprague-Dawley rats [1]
  rotarod performance (ataxia): did not produce ataxia

## CCN(CC1COC(N)=N1)c1ccccc1 (stereo not drawn) [Compound 2, 4-((ethyl(phenyl)amino)methyl)-4,5-dihydrooxazol-2-amine]
Sprague-Dawley rats [2]
  analgesic efficacy in the hot plate assay: not efficacious as an analgesic
Sprague-Dawley rats [3]
  analgesic efficacy in the tail flick assay: weak to marginal analgesic efficacy
